According to PubChem BioAssay AID1508649 (National Center for Advancing Translational Sciences (NCATS), 2021):
Screen size: about 43,000 compounds; about 830 (1.9%) were called active. Inconclusive means that the source gave no clear call. Such entries were picked first, then a sample of the others. The calls were made as follows: active = clear falling dose curves in both reporters; inconclusive = both reporters move, but less clearly or upward; inactive = either reporter flat; the % is the NLuc reporter signal. No potency is given beside an inconclusive call; the fits are too rough.
Potency is read from the fitted curve at half-maximal effect; tags tell the direction and shape of the fitted curve.

Test: Cell-based coincidence reporter assay to measure PMP22 gene transcription in S16 Pmp22-F2sN cells - Primary screen
Conditions: S16 Pmp22-F2sN Schwann cells (luciferase reporters placed in the Pmp22 gene), FLuc/NLuc coincidence luminescence, 24 h; measured here: NLuc reporter readout, at 57.5 µM (top of the series)
How it was run: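 Rat S16 Pmp22-F2sN cells, 500-1,000/well in phenol red-free DMEM + 10% FBS, compound-treated 24 h (37C, 5% CO2). Luminescence: FLuc read, Stop&Glo added, NLuc read.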
With `Cc1ccc(-n2ncc3c(N(CCO)Cc4ccccc4)ncnc32)cc1` the Potency was “inactive”. For `CN(Cc1ccccc1)C(=O)c1cc2c(s1)-c1ccc(Cl)cc1SC2`, the Potency was “inactive”. For `CCc1ccc(NC(=O)Cn2c(=O)ccc3cc(S(=O)(=O)N4CCCC4)ccc32)cc1`, the Potency was inconclusive [phenotype inactive, single point]. With `Cc1ccc(CCNC(=O)c2ccc(CSCc3ccc(C)cc3)o2)cc1` the Potency was inconclusive [phenotype inactive, single point]. With `COc1ccc(CNC(=O)Cn2ccc3cc(S(=O)(=O)N4CCCCCC4)ccc32)c(OC)c1` the Potency was inconclusive [phenotype inactive, single point]. In the case of `COc1ccc(C(=O)c2cn(Cc3cccc(C)c3)c3cc4c(cc3c2=O)OCCO4)cc1OC`, the Potency is reported as inconclusive [phenotype inactive, single point]. In the case of `Cc1ccc(CCNC(=O)CN2CCN(Cc3ccc(Cl)cc3)C2=O)cc1`, the Potency is reported as inconclusive [phenotype inactive, single point]. For `O=C(NCc1ccc(Cl)cc1)c1ccc2oc(=O)n(Cc3ccccc3)c2c1`, the Potency was inconclusive [phenotype inactive, single point]. For `Cc1c(C(=O)OC2CCC(C)CC2)[nH]c2c1C(=O)CC(c1ccccc1Cl)C2` (configuration not stated), the Potency was active: 10.1 µM. With `O=C(CCCn1c(=O)[nH]c2ccsc2c1=O)N1CCN(c2cccc(C(F)(F)F)c2)CC1` the Potency was inconclusive [phenotype inactive, single point]. For `O=C(Nc1ccc(Cl)cc1)c1cc(S(=O)(=O)N2CCCc3ccccc32)ccc1F`, the Potency was inconclusive [phenotype inactive, single point]. With `CCCC1=Nc2cc(C(=O)NCC(C)c3ccccc3)ccc2Sc2ccccc21` (configuration not stated) the Potency was inconclusive [phenotype inactive, single point]. With `COc1cc(NS(=O)(=O)c2ccc(NC(=O)c3ccc(OC)c(Br)c3)cc2)nc(OC)n1` the Potency was “inactive”. For `O=C(Nc1ccc(F)cc1F)N1CCc2c(sc3c2CCCC3)C1c1ccc(F)cc1` (configuration not stated), the Potency was inconclusive [phenotype inactive, partial curve, poor fit]. For `CCc1ccc(S(=O)(=O)n2ccnc2)cc1`, the Potency was “inactive”. With `Cc1ccc(-c2nn3c(=O)cc(CN4CCN(C(=O)c5ccc(C(C)(C)C)cc5)CC4)nc3s2)cc1` the Potency was “inactive”. In the case of `CCc1ccc(S(=O)(=O)N(C(C)=O)c2ccc3oc4c(c3c2)CCCC4)cc1`, the Potency is reported as inconclusive [phenotype inactive, single point]. In the case of `Cc1oc(-c2ccccc2Cl)nc1CS(=O)(=O)CC(=O)NC(C)CCc1ccccc1` (configuration not stated), the Potency is reported as inconclusive [phenotype inactive, single point]. For `Cc1ccc(C)c2sc(N3CCN(C(=O)c4ccco4)CC3)nc12`, the Potency was inconclusive [phenotype inactive, partial curve, poor fit]. With `Cc1ccc(S(=O)(=O)c2nnn3c2nc(N2CCCCC2)c2sccc23)cc1` the Potency was inconclusive [phenotype inactive, partial curve, poor fit]. With `Cc1cc2nc(-c3cccc(NC(=O)COc4ccc(C(C)C)cc4)c3)oc2cc1C` the Potency was “inactive”. With `COc1cccc(NC(=O)CSc2c(C)cnc3c2c(=O)n(C)c(=O)n3C)c1` the Potency was inconclusive [phenotype inactive, single point]. With `CCOc1ccc(S(=O)(=O)N(C(C)=O)c2ccc3oc(C)c(C(=O)OC)c3c2)cc1` the Potency was active: 5.38 µM. For `Cc1ccc(C(=O)Nc2cc3cc(Cl)ccc3oc2=O)cc1`, the Potency was active: 6.5 µM. With `CC1CCN(C(=O)c2ccc3c(c2)N(Cc2ccccc2)C(=O)c2ccccc2S3(=O)=O)CC1` the Potency was inconclusive [phenotype inactive, single point]. With `CCCc1nnc(NC(=O)Cc2coc3ccc(C(C)C)cc23)s1` the Potency was “inactive”. With `CN(C(=O)CSc1nc(C2CCCC2)nc2c1c(=O)n(C)c(=O)n2C)c1ccccc1` the Potency was inconclusive [phenotype inactive, partial curve, poor fit]. With `CC(C)CCNS(=O)(=O)c1ccc(N2CCCCS2(=O)=O)cc1` the Potency was inconclusive [phenotype inactive, partial curve, poor fit]. In the case of `COc1ccc(C(=O)Nc2nc3n(n2)C(c2ccccc2)C=C(c2ccccc2)N3)cc1` (configuration not stated), the Potency is reported as inconclusive [phenotype inactive, single point]. In the case of `O=C(CCS(=O)(=O)c1nc(-c2cccs2)cc(C(F)(F)F)n1)Nc1cc(Br)ccc1O`, the Potency is reported as inconclusive [phenotype inactive, full curve, poor fit]. For `COc1cccc(C(=O)N2c3ccc(C)cc3C(C)(c3ccccc3)CC2(C)C)c1` (configuration not stated), the Potency was inconclusive [phenotype inactive, single point]. With `Cc1ccccc1Cc1c(C)nc2nc(SCC(=O)N(C)c3ccccc3)nn2c1C` the Potency was inconclusive [phenotype inactive, single point]. With `COc1ccc(C(=O)N2CCC(c3nc4ccccc4s3)CC2)cc1Cl` the Potency was inconclusive [phenotype inactive, single point]. For `COc1ccccc1/C=C/c1nc(C#N)c(N2CCN(C)CC2)o1`, the Potency was “inactive”. In the case of `CCc1ccc(C2c3c(oc4ccc(F)cc4c3=O)C(=O)N2CCc2ccc(OC)cc2)cc1` (configuration not stated), the Potency is reported as inconclusive [phenotype inactive, single point]. With `COc1ccc(S(=O)(=O)NCCc2sc(-c3cccnc3)nc2C)c(F)c1` the Potency was inconclusive [phenotype inactive, partial curve, poor fit]. In the case of `COc1ccc(NC(=O)CSc2oc(-c3ccc(F)cc3)nc2S(=O)(=O)c2ccc(C)cc2)c(OC)c1`, the Potency is reported as inconclusive [phenotype inactive, single point]. For `CCOc1ccccc1NC(=O)N1c2ccccc2Sc2ccccc21`, the Potency was inconclusive [phenotype inactive, single point]. In the case of `Cc1ccc(NC(=O)Cn2nnc3sc4c(c3c2=O)CCC(C)C4)cc1` (configuration not stated), the Potency is reported as inconclusive [phenotype inactive, single point]. With `Cc1oc(-c2cccc(Cl)c2)nc1CN1CCCC(C(=O)NCCc2ccc(Cl)cc2)C1` (configuration not stated) the Potency was inconclusive [phenotype inactive, partial curve]. For `CCc1ccccc1NC(=O)Nc1cc(C(=O)NCc2cccc(F)c2)ccc1N1CCCC1`, the Potency was inconclusive [phenotype inactive, single point]. In the case of `CCS(=O)(=O)c1ncc(N(Cc2cccc(F)c2)Cc2ccco2)c(C(=O)Nc2ccccc2Cl)n1`, the Potency is reported as inconclusive [phenotype inactive, single point]. With `CCOC(=O)c1cccc(NC(=O)c2cnn(-c3ccccc3)c2-n2cccc2)c1` the Potency was inconclusive [phenotype inactive, partial curve]. For `O=C(Nc1ccc(Cl)cc1)C1CCN(S(=O)(=O)c2ccc(Br)s2)CC1`, the Potency was inconclusive [phenotype inactive, single point]. For `Fc1ccccc1N1CCN(c2c3c(nc4nncn24)CCC3)CC1`, the Potency was inconclusive [phenotype inactive, partial curve]. In the case of `Cc1ccc(/C=C/c2onc(C)c2S(=O)(=O)N2CCC(C(=O)NCc3ccc(N(C)C)cc3)CC2)cc1`, the Potency is reported as inconclusive [phenotype inactive, single point]. With `COc1ccc(Br)cc1CNC(=O)CN1C(=O)CSc2ccc(S(=O)(=O)N3CCOCC3)cc21` the Potency was inconclusive [phenotype inactive, partial curve, poor fit]. In the case of `Cc1ccc(C(=O)N/C(=C\c2cn(S(=O)(=O)N(C)C)c3ccccc23)C(=O)NCCCn2ccnc2)cc1`, the Potency is reported as inconclusive [phenotype inactive, single point]. For `CC(=O)c1cccc(NC(=O)c2nc(-c3ccccc3)n(-c3ccccc3C)n2)c1`, the Potency was inconclusive [phenotype inactive, single point]. For `CCOC(=O)C1CCN(C(=O)c2nn(-c3ccc(OC)cc3)c(=O)c3c2c2ccccc2n3C)CC1`, the Potency was inconclusive [phenotype inactive, single point]. With `COc1ccc(C2CC(=O)N(CC(=O)Nc3cccc(C)c3C)c3ccccc3S2)cc1OC` (configuration not stated) the Potency was active: 11.9 µM. In the case of `CCOc1ccc(CNC(=O)Cn2c(=O)c3cccn3c3ccccc32)cc1`, the Potency is reported as inconclusive [phenotype inactive, single point]. For `Cc1cc(C)c(NC(=O)Cn2c(=O)n(Cc3ccc(C(=O)NCc4ccco4)cc3)c(=O)c3sccc32)c(C)c1`, the Potency was inconclusive [phenotype inactive, single point]. With `CCOC(=O)c1ccc(NC(=O)c2c(NCc3cccc(OC)c3OC)sc3c2CCC3)cc1` the Potency was “inactive”. With `Cc1ccc(C)c(Cn2c(=O)n(CCCC(=O)NCc3ccc4c(c3)OCO4)c(=O)c3sccc32)c1` the Potency was inconclusive [phenotype inactive, single point]. With `COc1cc2c(cc1NC(=O)C(C)Oc1ccccc1)oc1ccccc12` (configuration not stated) the Potency was “inactive”. With `CCn1cc2nc(SCc3cccc(C(F)(F)F)c3)n(Cc3ccc(C)cc3)c(=O)c2n1` the Potency was inconclusive [phenotype inactive, single point].
